Laboratory results published in PubChem BioAssay AID1963576 (National Center for Advancing Translational Sciences (NCATS), 2024).
Screen size: about 46,000 compounds; about 60 (0.1%) were called active. Another 3% or so got no clear call; they are omitted. The call rests on the fitted dose curve; in most records, active means well fitted inhibition curve with a large enough effect; inconclusive means small, poorly fitted or top-dose-only effect; inactive means no such curve, though single readings can be large or run the other way. The list shows a part of the results.

Experiment: Primary qHTS assay for Inhibitors of ovarian cancer metastasis using an organotypic tumor microenvironment (TME) model. Further: nearly all actives have a fitted effect of over 65% in size.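 On activity change, negative = inhibition: plate controls were DMSO wells for no effect and tomatine positive control wells for full effect.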
Details: SKOV3ip1-GFP adhesion/invasion on 3D omental model, fluorescence; series mostly up to 45.8 µM; activity change, negative = inhibition: at the top concentration
Procedure, shortened: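 Primary human omental fibroblast/mesothelial 3D culture pre-formed 48 h. SKOV3ip1-GFP cells added with compounds (0.36-46 umol/L), incubated 2 h RT/16 h 37 C, fixed; GFP cells quantified at 488/509 nm.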

Activity change, negative = inhibition, inactive:
COc1ccc(-c2nc3c4ccccc4n(CC(=O)Nc4cc(F)ccc4F)c(=O)n3n2)cc1 -13.2%, CCn1cc(S(=O)(=O)c2cc(C)cc(C)c2)c(=O)c2cc(F)c(N3CCCC3)cc21 -25.9%, COc1ccc(N2CCN(S(=O)(=O)CCNC(=O)Cc3ccc(Cl)cc3)CC2)cc1 15.7%, CCOC(=O)C1CCN(C(=O)Cn2nc(C)n3c(cc4cc(F)ccc43)c2=O)CC1 7.32%, CCCCN1C(=O)CN(C2CCCCCC2)C(=O)C1c1ccc(OCCC)c(OC)c1 (configuration not stated) -1.26%, O=c1cc(N2CCN(c3ccc(F)cc3)CC2)[nH]c(=O)n1-c1ccc(Br)cc1 -10.5%, CCOC(=O)c1c(NC(=O)c2nc(SC(C)C)ncc2Cl)sc2c1CCCC2 10.8%, COc1ccc(OC)c(NC(=O)CSC2=Nc3ccccc3C3=NC(CC(=O)NCc4ccc5c(c4)OCO5)C(=O)N23)c1 (configuration not stated) 1.38%, Cc1ccccc1Cn1c(=O)n(Cc2ccc(Cl)cc2)c(=O)c2cccnc21 0.944%, CC(=O)c1c(C)oc2c(Cl)cc(NS(=O)(=O)c3ccc(Cl)cc3)cc12 9.32%, COc1cc(NC(=O)N2CCC(CN3CCCC3)CC2)cc(OC)c1OC -1.79%, CN(C)c1ccc(C(CNS(=O)(=O)c2ccccc2)N2CCc3ccccc32)cc1 (configuration not stated) 2.64%, COc1cc(C(=O)NCC(c2cccnc2)N2CCc3ccccc32)cc(OC)c1OC (configuration not stated) -0.107%, CCOC(=O)c1c(-c2ccc(Br)cc2)csc1NC(=O)c1ccccc1F 0.925%, O=C(CSc1nccn1-c1ccc(F)cc1)Nc1ccc(OC(F)(F)F)cc1 -8.64%, CCN(CC)C(=O)Cn1c(=O)n(Cc2ccc(C(=O)NCc3ccccc3Cl)cc2)c(=O)c2ccccc21 9.04%, COc1cc2c(cc1OC)C(COc1ccc3c(C)cc(=O)oc3c1)N(C(=O)c1ccc(Cl)cc1)CC2 (configuration not stated) 17.4%, O=C1CN(C(=O)c2ccccc2C(F)(F)F)C(c2ccccc2)c2cc(F)ccc2N1 (configuration not stated) -9.19%, CCCNc1c(NC(=O)c2ccc(OCCC)cc2)c(=O)oc2ccccc12 -1.79%, O=C1[C@@H]2CSC(c3ccc(C(F)(F)F)cc3)N2C(=O)N1c1ccccc1 (some centres not stated) 3.38%, Cc1ccc2c(C)c(C(=O)N(Cc3ccc(Cl)cc3)C3CCS(=O)(=O)C3)oc2c1 (configuration not stated) -2.54%, CCOc1ccc(-n2c(SCC(=O)N3CCOCC3)nc3c([nH]c4ccccc43)c2=O)cc1 38.8%, CC(C)(C)OC(=O)N1CCC(c2c(C(=O)N3CCN(C(=O)c4ccco4)CC3)cnn2-c2cccc(F)c2)CC1 -10.1%, COc1cc(C(=O)Nc2ccc3nc(SCc4ccc(C)cc4)sc3c2)cc(OC)c1OC -6.16%, Cc1ccc(Cl)cc1-n1ncc2c(NC3CCCCCC3)ncnc21 -31.4%, Cc1ccc(-n2nc(C(=O)N3CCC(C)CC3)c(=O)n(C)c2=O)cc1 2.81%, O=C(Nc1cccc(F)c1)c1ccc2snnc2c1 23.3%, Cc1ccc(C)c(Nc2nnc(-n3nc(C)cc3C)c3ccccc23)c1 2.38%, O=C(NC1CC(=O)N(c2cccc(F)c2)C1)c1ccc(Br)o1 (configuration not stated) 16.1%, CSc1ccc(CCNC(=O)CCc2c(C)nc3c(c(C)nn3-c3ccccc3)c2C)cc1 2.73%, Cc1nc(N2CCOCC2)c2c(C(=O)Nc3cccc(C(F)(F)F)c3)c(C)oc2n1 -0.102%, COc1ccc(CNC(=O)C2CCN(Cc3nc(-c4ccc(Cl)cc4)oc3C)CC2)cc1 -8.7%, Cc1ccc(S(=O)(=O)NCCS(=O)(=O)N2CCN(c3ccccc3)CC2)cc1 -4.35%, O=C(O)c1cc(-n2c(/C=C\c3ccc(F)cc3)nc3ccccc3c2=O)ccc1Cl -3.29%, Cc1cccc(N2CCN(CCNC(=O)C3COc4ccccc4C3)CC2)c1C (configuration not stated) 2.5%, O=C(NCc1ccc(Cl)cc1)c1cnc(N2CCCCC2)c2ccccc12 -10.1%, CC(=O)c1ccc(NC(=O)CCSc2nc(-c3ccco3)cc(C(F)(F)F)n2)cc1 -12.1%, CCOC(=O)Cc1ccc(NC(=O)N2CCOc3ccc(C)cc32)cc1 5.69%, COc1ccc(OC)c(NC(=O)c2noc3c2CCCC3)c1 1.49%, CC(C)c1ccc(NC(=O)C2CCCN(S(=O)(=O)c3cccc4cccnc34)C2)cc1 (configuration not stated) 10.6%, COC(=O)c1c(-c2ccc(Cl)cc2)noc1N1CCN(c2ccc(C)cc2C)CC1 2.7%, Cc1ccc(OC(C)C(=O)Nc2nonc2-c2ccc(Br)cc2)cc1C (configuration not stated) -14.3%, O=C(Nc1c(Cl)cccc1Cl)c1cc(-c2ccc3c(c2)OCO3)on1 -8.11%, CCOC(=O)Cn1c(=O)oc2cc(S(=O)(=O)N3CCN(c4cccc(C)c4C)CC3)ccc21 12.2%, Cc1ccc2nc(N(Cc3cccnc3)C(=O)COc3ccccc3)sc2c1 -4.11%, CCOC(=O)c1cc(S(=O)(=O)N2CCN(c3ccccc3)CC2)[nH]n1 17.9%, Cc1ccc(Oc2c(C(F)(F)F)oc3c(CN4CCCCC4C)c(O)ccc3c2=O)cc1 (configuration not stated) 4.7%, COc1ccc(C(=O)NCC(c2cccnc2)N2CCc3ccccc32)cc1 (configuration not stated) 10.4%, CCOC(=O)CC(NS(=O)(=O)c1ccc2[nH]c3c(c2c1)CCCC3)c1ccccc1Cl (configuration not stated) -5.01%, COc1ccc(-c2nn3c(=O)cc(CN4CCN(C(=O)c5ccc(C(C)(C)C)cc5)CC4)nc3s2)cc1 -1.37%, Cc1ccc(Nc2c(-c3c[nH]c4ccccc34)nc3cc(C)ccn23)cc1 1.36%, CCC(C(=O)Nc1cc(Cl)ccc1OC)n1nc(-c2ccccc2)ccc1=O (configuration not stated) 57.4%, Cc1cccc(NC(=O)c2oc3ccccc3c2NC(=O)Cc2coc3c(C)c(C)ccc23)c1 -8.12%, O=C(CCC1N=C2c3ccccc3N=C(SCc3ccc(F)cc3)N2C1=O)NCc1cccs1 (configuration not stated) -1.59%, COc1cc(C(CC(=O)NCc2ccc(F)cc2)N2Cc3ccccc3C2=O)cc(OC)c1OC (configuration not stated) -12.4%, COc1ccc(NC(=O)Cn2c(=O)n(-c3ccc(OC)c(OC)c3)c(=O)c3ccccc32)cc1 32.2%, CCCCN(C)c1nc2c(S(=O)(=O)c3ccc(CC)cc3)nnn2c2ccc(Cl)cc12 4.28%, COc1ccccc1NC(=O)C1=C(C)Nc2c(C(=O)Nc3ccc(F)cc3)cnn2C1c1cccc([N+](=O)[O-])c1 (configuration not stated) -23.8%, CC(=O)N1CCc2cc(Br)cc(S(=O)(=O)N3CCN(c4cccc(C(F)(F)F)c4)CC3)c21 -3.17%, CCCCOc1ccc(-c2nn(-c3ccccc3)cc2C2NC(=O)NC(C)=C2C(=O)OC)cc1 (configuration not stated) 5.74%, O=C(C1CC1)N1CCc2cc(Br)cc(S(=O)(=O)N3CCN(c4cccc(C(F)(F)F)c4)CC3)c21 -5.85%, COc1ccc(Cl)cc1C(=O)Nc1sc2c(c1C(=O)OC(C)C)CCCC2 6.41%, COc1ccccc1CNC(=O)C1CCCN(c2nc3ccccc3n3cccc23)C1 (configuration not stated) -1.48%, COc1ccc(C2CC(=O)c3cc(-c4nc(-c5cccc(Cl)c5)cs4)c(=O)[nH]c3C2)cc1OC (configuration not stated) -10.4%, COC(=O)c1ccccc1NC(=O)c1ccc(COc2ccccc2Cl)o1 7.29%, CCOC(=O)c1ccc(NC(=O)c2c(-c3c(F)cccc3Cl)noc2C)cc1 3%, Cc1noc(/C=C/c2cccs2)c1S(=O)(=O)N1CCC(C(=O)Nc2ccc(F)c(Cl)c2)CC1 21%, COc1ccc(C(F)(F)F)cc1NC(=O)c1sc2nc(-c3cccs3)ccc2c1N 15.5%, COC(=O)c1cc2oc3ccccc3c2n1Cc1nc(-c2ccc(OC)cc2)oc1C -6.28%, CCn1c(C(=O)NCCc2ccc(OC)c(OC)c2)cc2sc(Cl)cc21 -13.8%, COc1cccc(C(=O)Nc2cccc(C(=O)OCc3cc(=O)n4nc(C5CC5)sc4n3)c2)c1 -5.11%, O=C(NC1CCCCC1)c1ccc(Cn2c(SCc3ccccc3F)nc3cccnc32)cc1 -9.88%

outcome, inactive:
CCOc1ccc(OC(=O)c2cn(-c3ccc(C)cc3)c(=O)c3ccccc23)cc1, COc1cc(Cl)c(C)cc1NC(=O)c1sc2nc3n(c(=O)c2c1C)CCCCC3, COc1cc(C2C(=O)N(C3CCCCC3)CC(=O)N2Cc2ccc(C)cc2)ccc1OC(C)C (configuration not stated), CCCC(=O)N1CCN(c2nc3c(OC)ccc(C)c3s2)CC1, CC(=O)c1ccc(S(=O)(=O)Nc2cccc(-c3ccc(N4CCCCCC4)nn3)c2)cc1, Cc1ccc(Cc2nc3ccccc3nc2SCC(=O)Nc2ccc3c(c2)OCO3)cc1, Cc1ccc(CNC(=O)C(CC(C)C)NS(=O)(=O)c2ccc3c(c2)oc(=O)n3C)cc1 (configuration not stated), Cc1c(S(=O)(=O)c2cccc(Cl)c2)nnn1-c1cccc(C(F)(F)F)c1, CCc1nnc2c3ccccc3nc(Nc3ccc(C(C)=O)cc3)n12, CCOC(=O)c1c(N)n(-c2ccc(C)c(Cl)c2)c2nc3ccccc3nc12, CC(C)OCCCNC(=O)c1ccc2c(c1)N(Cc1c(F)cccc1Cl)C(=O)c1ccccc1S2, CCOc1ccccc1NC(=O)CSc1nc2c(oc3ccccc32)c(=O)n1-c1ccc(C)c(C)c1, COc1cc(OC)c(OC)cc1/C=C/c1nc2cc3ccccc3cc2c(=O)n1-c1ccc(Cl)cc1, CCOC(=O)C1=C(CS(=O)(=O)c2cccc(C(F)(F)F)c2)NC(=O)NC1c1cccc(OC)c1 (configuration not stated), CC1=C(c2ccc(C)c(C)c2)S(=O)(=O)N(Cc2ccc(C(=O)NCc3cccc(C)c3)cc2)C1=O, CCOc1ccc(NC(=O)c2ccc(NC(=O)N3CCSc4ncccc43)cc2)cc1, CCC(=O)N1CCc2cc(Br)cc(S(=O)(=O)N3CCC(C(=O)NCCCOC(C)C)CC3)c21, Cc1cccc(N2CCN(c3ncnc4c3nc3n4CCCCC3)CC2)c1C, CC(=O)c1ccc(N2CCN(c3ncnc4c3c(-c3ccccc3)cn4-c3cccc(C)c3)CC2)cc1, Nc1c(-c2nc(-c3cccs3)no2)nnn1-c1ccc(Cl)cc1
